Measurements: the RNAGym collection of RNA variant scans (doi:10.1093/nar/gkz1192)
The source gives no read counts; variants with many changes may rest on few reads.

B1: CPEB3 Ribozyme (parent)
chain: UAACAGGGGGCCACAGCAGAAGCGUUCACGUCGCAGCCCCUGUCAGAUUCUGGUGAAUCUGCGAAUUCUGCUGUAUAUCUC

Variants of: B1
Experiment: self-cleavage, relative activity (ratio to wild type); higher = more cleavage; in vitro, sequencing
Summary of the method: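 Barcoded CPEB3 ribozyme mutants, produced by rounds of error-prone PCR, self-cleaved while being transcribed with T7 RNA polymerase for 5 hours at 37°C and during a subsequent 15 min DNase I step before EDTA was added. Sequencing of template-switched cDNA on Illumina gave cleaved and total reads, and DNA sequencing assigned barcodes to variants. Each variant's relative activity is its cleaved/total read fraction divided by the unmutated ribozyme's fraction, averaged across three batches. A variant needed a minimum of 5 reads.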

Variant	self-cleavage
U26C U60C A77U	0.25
U26C U60C U80A	0.14
U26C U67G U80C	0.1
U26C U72A U78C	0.33
U26C U74C A75G	0.81
U26G A35G U69C	0.16
U26G A35U U72C	0.08
U26G A56G U72A	0.44
U26G A64G U78A	0.18
U26G C32A U41A U54C G63A	0.11
U26G G46U U48A U67C U76G	0.18
U26G G52A U78A	0.19
U26G U41A U67A U76C	0.14
U26G U49C U51C A56G	0.16
U26G U72A A77G	0.14
C27A A28G U60C U66C U69C	0.16
C27A A28U C29U U43C A57U	0.14
C27A A57G A64G U76A	0.08
C27A A65G U72C	0.12
C27A A65U U69C G70C	0.09
C27A C34G A64G U72C	0.04
C27A C38A U54C C81A	0.06
C27A U31A U43C U54A	0.22
C27A U31C A35U U51A	0.13

Variant	self-cleavage
C27A U43A U48C U49C A57G	0.1
C27A U43C A56U	0.1
C27A U49C A57U U58C U67C	0.11
C27A U51A U54C	0.36
C27G G42A U51C G61A	0.19
C27G U60C A64G U69C	0.11
C27U A28G A56U A64G U74C	0.12
C27U A28U A56G U60C	0.14
C27U A35G U43A C71G U74C U80C	0.1
C27U A35G U66C	0.23
C27U A35G U66C U80C	0.32
C27U A35U G53C U60C	0.12
C27U A64G U74C A77U	0.31
C27U G30A A47G	0.27
C27U U31A A35U U67G G70C	0.04
C27U U41C A75U U76C	0.27
C27U U43C G70A	0.45
C27U U43C U48C U72A	0.13
C27U U48C C62U A75U	0.08
C27U U54A U78C	0.16
C27U U58C C68U	0.09
C27U U58C U67A	0.07
A28C A35G U69C U72A	0.24
A28C A35U U48C	0.43

Variant	self-cleavage
A28C A45U U49C U51A A65G U72C	0.02
A28C A47G U60A U66A	0.18
A28C A56U A57G	0.11
A28C A56U U66A A77G	0.33
A28C A64G U66A	0.34
A28C C29A U51A U58A	0.09
A28C C34A A64U	0.16
A28C C40A C59A	0.12
A28C C40U C81G	0.15
A28C C40U G55A A56G A65G	0.05
A28C C50A U51A G63A	0.17
A28C C50G U54C U67A	0.07
A28C G30U U43C A47G U49A A57G	0.12
A28C G36U U43A U49A U69A U72C	0.14
A28C U31C A57G	0.36
A28C U41A U58C	0.12
A28C U41C A57U	0.23
A28C U41G A56U	0.15
A28C U43A A45G A47U U74C A77U	0.07
A28C U48A U80C	0.15
A28C U49C U78C	0.13
A28C U51C A75U	0.54
A28C U54A U67C	0.12
A28G A35C U74C	0.68

Variant	self-cleavage
A28G A35G A56U	0.68
A28G A35G A56U U67C C71U	0.35
A28G A35G C37U U43C	0.44
A28G A35G C39A U41C A77G	0.55
A28G A35G U41A	0.15
A28G A35G U43C U60C	0.36
A28G A35G U54G A65G	0.5
A28G A35G U66C U74A	0.51
A28G A35G U67C A77U	0.16
A28G A35G U76A	1.21
A28G A35U U51A	0.24
A28G A35U U51A G55A A57G U74C A75G	0.07
A28G A35U U51C U66C A75G	0.12
A28G A45G U48A	0.14
A28G A45G U72C	0.54
A28G A45U U60C	0.31
A28G A47G U54A A57U U60A G63A U69A	0.08
A28G A47G U80A	0.94
A28G A56C A57G	0.29
A28G A56G U76A	0.37
A28G A56G U78C	0.31
A28G A56U A64G	0.16
A28G A56U C68U	0.15
A28G A57C U76C	0.11

Variant	self-cleavage
A28G A57G U80A	0.72
A28G A64G U66C	0.09
A28G A64U U72C	0.2
A28G A64U U74C U78C	0.39
A28G A64U U80C	0.27
A28G A65U U80A	0.18
A28G C29G A56G	0.62
A28G C29G A64G A75G	0.13
A28G C29G C44U U48C U51A G52U U67C	0.03
A28G C29U A35U U51C A75U	0.23
A28G C29U G33C U76C	0.2
A28G C29U G42A U43G U58C	0.27
A28G C29U U80C	0.53
A28G C32A U69A	0.39
A28G C32U A57U U78C	0.1
A28G C34A A35G U41A U49A U72A	0.07
A28G C34U U67C U72C	0.08
A28G C34U U74G	0.29
A28G C37A U69G	0.09
A28G C38U A47U U49G U80C	0.09
A28G C38U U43C A47G U67C	0.15
A28G C39G U41C U51C	0.06
A28G C40A A45G	0.19
A28G C40U A57G U58C	0.1

Variant	self-cleavage
A28G C40U A64U	0.12
A28G C40U G53C U78G	0.32
A28G C40U U60C A64G U78C	0.12
A28G C50A A56C	0.55
A28G C71G U76C	0.11
A28G G30A C32U G52U A56U	0.16
A28G G33A A56G	0.43
A28G G36C U43C A65G U78C	0.07
A28G G36C U67C	0.06
A28G G42A U48C A57G	0.17
A28G G42A U58A A75U	0.34
A28G G52U A57G	0.47
A28G U31A A35G A45G G63U U67A U69A	0.15
A28G U31A A56G A64G	0.14
A28G U31A A75G	0.35
A28G U31A U49C U54C U60A	0.07
A28G U31A U67A U69A	0.06
A28G U31A U67C	0.15
A28G U31C A45U A56C	0.17
A28G U31C G53C A65G	0.14
A28G U31C U58C	0.16
A28G U31C U69C	0.14
A28G U41A A45U A56U U69C	0.13
A28G U41C A45U A64U U67C	0.11

Variant	self-cleavage
A28G U41C A47G	0.72
A28G U41C A75G	0.43
A28G U41C C59U G63U U66A U80C	0.17
A28G U41C G53A A56G	0.31
A28G U41C U67A	0.34
A28G U41C U72C	0.74
A28G U41C U80A	0.87
A28G U41G A77U	0.21
A28G U41G U51A	0.45
A28G U43A U51C A64G U69C	0.21
A28G U43A U80C	1.02
A28G U43C G46U U78A	0.16
A28G U43C U49C U69C U80C	0.35
A28G U43C U58C A77G	0.11
A28G U43C U76C	0.33
A28G U43G U54C U60C C62U U69C	0.15
A28G U43G U76C	0.08
A28G U43G U78C	0.15
A28G U48C A56U A65U U72C	0.12
A28G U48C A56U U80A	0.16
A28G U48C A64G	0
A28G U49A U76G A77G	0.14
A28G U49C U69G U72A	0.12
